“And” between values parts separate entries of the source, which are not always exact repeats. Equal values may be shown once.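 All cell lines were grown in 96-well plates and treated with compound for 48 hours. Abbreviation: GI50, concentration required for 50% inhibition of growth. TGI is the concentration that stops growth completely.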
These compounds were tested on NCI-H322M lung (assay: NCI tumour cell line growth inhibition, 48 h).
For `COc1cc(OCc2ccc3oc(=O)c(-c4ccccc4)nc3c2)cc(OC)c1OC`, the TGI was greater than 100 µM.
`COc1ccc(CC(CO)NC(=O)OCc2ccccc2)cc1Oc1ccc(CC(CO)NC(=O)OCc2ccccc2)cc1` (centres undefined) was tested, and the TGI was 47.1 µM.
`COc1cccc(NC(=O)CC(=O)N2N=C(N(CCC#N)c3ccc(Cl)cc3)CC2c2ccccc2)c1` (centres undefined) was tested, and the TGI was greater than 100 µM.
`CC1(C)SC2C(NC(=O)C(N)c3ccccc3)C(=O)N2C1C(=O)O` (centres undefined) showed a TGI greater than 100 µM.
Work on `CC1=NCCc2c1[nH]c1cc(O)ccc21` yielded a TGI greater than 100 µM.
In the case of `CN(C)S(=O)(=O)c1ccc(NC(=O)COC(=O)c2ccc(S(=O)(=O)N3CCCCC3)cc2)cc1`, the GI50 is reported as greater than 100 µM and the TGI is reported as greater than 100 µM.
With `COc1ccccc1NC(=O)C1=C(C)NC(C)=C(C(=O)Nc2ccccc2OC)C1c1ccccc1F` the TGI was greater than 100 µM.
For `CC/C=C\C=C/C(=O)N/C=C/CC1Cc2cccc(O)c2C(=O)O1` (centres undefined), the GI50 was greater than 100 µM and the TGI was greater than 100 µM.
`CCCCCn1c(=N)n(CC(O)COc2cccc(C)c2)c2ccccc21` (centres undefined) gave a GI50 of 8.48 µM and a TGI of 22.1 µM.
For `CC(C)(C)C[C@H]1NC(C(=O)NCC[C@H](O)CO)[C@H](c2cccc(Cl)c2)[C@@]12C(=O)Nc1cc(Cl)c(F)cc12` (some centres undefined), the GI50 was 16.5 µM and the TGI was 33.6 µM.
`COc1cc(C2c3cc4c(cc3[C@@H](Nc3ccc(C#N)cc3)C3COC(=O)[C@H]23)OCO4)cc(OC)c1O` (some centres undefined) was tested, and the GI50 was 2.56 µM and 3.22 µM and the TGI was 24.7 µM and 46.1 µM and 33.3 µM.
In the case of `O=C1c2ccccc2-c2c1c1ccccc1c(=O)n2CCCNCCCNCCCn1c2c(c3ccccc3c1=O)C(=O)c1ccccc1-2`, the GI50 is reported as less than 0.0245 µM.
`COc1cc(/C=C/C(=O)O)ccc1C(=O)O/C=C/c1ccccc1` showed a TGI greater than 100 µM.
With `CCOP(=O)(OCC)C1C(CO)OC(n2ccc(=O)[nH]c2=O)C1O` (centres undefined) the TGI was greater than 100 µM.
`CC(=O)OC[C@]1(C(=O)C(O)c2ccoc2)[C@H](C)CC[C@@]23COC(=O)C2=CCC[C@@H]31` (some centres undefined) gave a TGI greater than 10 µM.
Compound `CC(C)C(=O)Nc1nc2nc[nH]c2c(=O)[nH]1` has a TGI greater than 100 µM.
In the case of `Cc1nn(C(=O)Cc2ccccc2)c2c1C(c1ccccc1O)SC(N)=N2` (centres undefined), the TGI is reported as greater than 100 µM.
Compound `CCNC(=O)Nc1ccccn1` has a TGI greater than 100 µM.
`CNC(=O)c1cncc(/C=C/c2ccccc2C)c1` gave a GI50 greater than 25 µM and a TGI greater than 25 µM.
In the case of `C/C(=N/NC(N)=S)c1ccc2ccccc2c1`, the TGI is reported as greater than 100 µM.
`C/C(N=Nc1nc2ccccc2s1)=C1/C=CC=CN1O` was tested, and the TGI was 70.5 µM.
`O=C1CCC(=Nc2ccc(Cl)cc2)N1C(=O)COc1ccc(OCC(=O)N2C(=O)CSC2=Nc2ccc(Cl)cc2)cc1` showed a TGI greater than 100 µM.
Work on `CN(CCCN)CCCNc1nc2ccccc2c2[nH]c3ccccc3c12` yielded a GI50 of 0.116 µM and a TGI of 0.696 µM.
With `CCN(CC)CCn1ccc(=O)c2cc3c(=O)ccn(CCN(CC)CC)c3c(C)c21` the TGI was 17.1 µM.
`C[C@H](Nc1ncnc2nc[nH]c12)c1cc2cccc(Cl)c2c(=O)n1-c1ccccc1` showed a GI50 of 8.5 µM and a TGI of 58.2 µM.
For `Nc1c2ccccc2nc2c1ccc1ncccc12`, the TGI was greater than 100 µM.
Work on `COc1ccc2c(c1)O/C(=C\c1cccc(OCC(=O)Nc3nc4c(s3)CCCC4)c1)C2=O` yielded a GI50 greater than 100 µM and a TGI greater than 100 µM.
`CCN1C(=O)N(CC)C2C1NN=c1s/c(=C\c3cccnc3)c(=O)n12` (centres undefined) showed a GI50 of 0.548 µM and a TGI greater than 100 µM.
With `Cc1cc2c(C)cc(=O)[nH]c2cc1N` the TGI was greater than 100 µM.
For `COCOc1ccc(OC)cc1`, the TGI was greater than 100 µM.
In the case of `CC(C)(C)C#CC1=C(Br)C(=O)OC1`, the GI50 is reported as 1.65 µM and the TGI is reported as 4.37 µM.
Work on `CC1(C)C(c2ccccc2)=[N+]([O-])C(C)(C)N1O` yielded a TGI greater than 10 µM.
With `Cc1ccc(C(=O)O/N=C2/CCC/C2=C\c2ccccc2)cc1` the TGI was greater than 100 µM.
`Cc1ccc(/C=C2\CN(C(=O)OC(C)(C)C)C/C(=C\c3ccc(C)cc3)C2=O)cc1` gave a TGI greater than 100 µM.
In the case of `C=C1C(O)C2(O)OCC34C(CC5C(C)=CC(=O)C(O)C5(C)C23)OC(=O)C(OC(=O)C/C=C(\C)CCCCC)C14` (centres undefined), the GI50 is reported as 0.0101 µM and 0.05 µM and 0.0125 µM.
In the case of `Nc1cc2cccc[n+]2c2cc(Cl)ccc12`, the GI50 is reported as 21.9 µM.
For `CCCCCCCCCCCCOC(=S)NCCCC`, the TGI was greater than 100 µM.
`CNC(=O)OCc1nc(SC2CCCCO2)n(C)c1COC(=O)NC` (centres undefined) gave a TGI greater than 100 µM.
`Nn1c(CCCCCCCCc2nnc(COc3c(O)ccc4ccccc34)n2N)nnc1COc1c(O)ccc2ccccc12` showed a TGI greater than 100 µM.
`C=C1C(=O)O[C@H]2[C@H]1[C@H](OC(=O)/C(C)=C\C)CC(=C)[C@@H]1[C@H](O)[C@H]3O[C@@]3(C)[C@@]12O` was tested, and the TGI was greater than 100 µM.
`O=C1c2ccccc2CN1c1ccc(O)cc1` was tested, and the TGI was greater than 100 µM.
Compound `COc1ccc(N2C(C)=C(C#N)C34C(=O)N(c5ccccc5)C(=O)C3=C(O)C=CC24O)cc1` (centres undefined) has a GI50 of 18 µM and a TGI of 49.5 µM.
For `NC(=S)N/N=C(/CC(=O)c1ccccc1)C(=O)Nc1ccc(Cl)c(Cl)c1`, the TGI was greater than 100 µM.
`C=C1C(=O)OC2/C=C(\CO)C(OC(C)=O)CC(O)/C(C)=C/C(OC(=O)C(C)CC)C12` (centres undefined) gave a TGI greater than 100 µM.
`CCCc1[nH]nc(CCC(=O)N(Cc2ccccc2)Cc2ccccc2)c1CC` was tested, and the TGI was greater than 100 µM.
`COc1cc(C2c3cc4c(cc3OC(N3CCCC3)C2C)OCO4)cc(OC)c1OC` (centres undefined) gave a TGI of 9.79 µM.
With `COc1ccc(N[C@H](CSc2ccc(C)cc2)c2ccc(F)cc2)cc1` the TGI was greater than 100 µM.
For `COc1cc(/C=C2\C(=O)N(C(=O)Cc3ccccc3)N=C2C)ccc1O`, the TGI was greater than 100 µM.
`CC(CC(C#N)(c1ccccc1)c1ccccc1)N1CCCCC1` (centres undefined) gave a TGI greater than 100 µM.
`COc1cccc(/C=C/C(=O)c2cccc(Nc3nc(Nc4ccccc4)nc(Nc4ccccc4)n3)c2)c1` was tested, and the GI50 was greater than 40.9 µM and the TGI was greater than 100 µM.
Work on `N#Cc1nc(-c2cc([N+](=O)[O-])cc([N+](=O)[O-])c2)oc1N` yielded a TGI greater than 10 µM.
